Results on 47 compounds are retold here after PubChem BioAssay AID1963576 (National Center for Advancing Translational Sciences (NCATS), 2024).

The structures appear in SMILES notation. About 60 (0.1%) of roughly 46,000 compounds were called active. Inconclusive results (about 3%) are left out. The call rests on the fitted dose curve; in most records, active means well fitted inhibition curve with a large enough effect; inconclusive means small, poorly fitted or top-dose-only effect; inactive means no such curve, though single readings can be large or run the other way. The list shows a part of the results.

The assay in a line: Primary qHTS assay for Inhibitors of ovarian cancer metastasis using an organotypic tumor microenvironment (TME) model. Further: nearly all actives have a fitted effect of over 65% in size.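 On activity change, negative = inhibition: plate controls were DMSO wells for no effect and tomatine positive control wells for full effect.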 The following applies: SKOV3ip1-GFP adhesion/invasion on 3D omental model, fluorescence; series mostly up to 45.8 µM; activity change, negative = inhibition: at the top concentration. In a few lines:
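A 3D layer of primary human omental fibroblasts, mesothelial cells, fibronectin and collagen I, grown 48 hr, received SKOV3ip1-GFP cells in serum-free medium plus compounds at 0.36-46 umol/L. After 2 hr RT and 16 hr 37 C, fixed adherent GFP cells were counted; normalized to DMSO and tomatine.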
A general note: In qHTS, concentration-response curves come from the screen itself.
For `N#C/C(=C\c1ccccc1)c1nc(-c2cc3cc(Br)ccc3oc2=O)cs1`, the “activity change, negative = inhibition” value was inactive: -3.12%.

`CCOC(=O)c1oc2c(c1C)-c1nn(Cc3ccc(Cl)cc3)cc1CC2`: the outcome was inactive.

In the case of `Cc1noc(C)c1S(=O)(=O)N1CCC(C(=O)N2CCN(c3ccccc3)CC2)CC1`, the compound was called inactive.

With `CCc1ccc(OCC(=O)N(Cc2ccc(Cl)cc2)C2CCS(=O)(=O)C2)cc1` (configuration not stated), the “activity change, negative = inhibition” value was inactive: -8.45%.

Take `O=C(CSc1nc2c([nH]c3ccccc32)c(=O)n1-c1ccc(F)cc1)N1CCCCC1`: the compound was classed as inactive.

With `CCC(C)NC(=O)Cn1c(=O)cc(-c2ccccc2)c2c(C)nn(C)c21` (configuration not stated), the “activity change, negative = inhibition” value was inactive: 14.5%.

Consider `Cn1c(NCCO)nc2c1c(=O)n(Cc1ccccc1Cl)c(=O)n2C`, for which the “activity change, negative = inhibition” value is inactive: 0.741%.

Regarding `COc1ccccc1NC(=O)Cn1nnc(C(=O)NCc2ccc3c(c2)OCO3)c1N`, the outcome was inactive.

With `CCn1c(=O)n(CC)c2cc(N3CCCCC3)c(NC(=O)Nc3ccccc3Cl)cc21`, the “activity change, negative = inhibition” value was inactive: 5.86%.

For the compound `CC(C)c1ccc(NC(=O)CN(C)S(=O)(=O)c2ccc3c(c2)c(=O)n(C)c(=O)n3C)cc1`, the compound was classed as inactive.

For the compound `Cc1c(C(=O)N(C)C)sc2c1c(=O)n(-c1ccc(Cl)c(Cl)c1)c(=O)n2CC(=O)Nc1cccc(C(F)(F)F)c1`, the result was inactive.

For the compound `COc1cccc(N2CCN(C(=O)c3c(C)oc4ncnc(N5CCOCC5)c34)CC2)c1`, the compound was classed as inactive.

On to `Cc1cccc(NS(=O)(=O)c2ccc3oc(=O)c4ncn(C)c4c3c2)c1C`, for which the “activity change, negative = inhibition” value was inactive: -3.01%.

For the compound `COc1cccc(Oc2nc3c(c(=O)n(Cc4ccccc4F)c(=O)n3C)n2C)c1`, the compound was classed as inactive.

For the compound `COc1cc2[nH]c(=O)n(CCCCCC(=O)N3CCN(c4cccc(C(F)(F)F)c4)CC3)c(=O)c2cc1OC`, the “activity change, negative = inhibition” value is inactive: -8.07%.

For the compound `COc1ccccc1C(=O)Nc1cc2c(cc1N1CCOCC1)n(C)c(=O)n2C`, the “activity change, negative = inhibition” value was inactive: 2.46%.

`Cc1nnc(C(=O)NC(C)(C)c2nc(C(=O)NCc3ccc(F)cc3)c(O)c(=O)n2C)o1`: the “activity change, negative = inhibition” value is inactive: -7.67%.

`O=C(CCS(=O)(=O)c1cc(Br)cc2c1N(C(=O)C1CC1)CC2)Nc1ccc(Br)cc1F`: the “activity change, negative = inhibition” value is inactive: 12.9%.

For `CCOC(=O)Cc1ccc(NC(=O)NCc2ccc3c(c2)CCN3C(=O)CC)cc1`, the “activity change, negative = inhibition” value is inactive: -6.93%.

Regarding `COC(=O)c1ccc(Cn2nnc3sc4c(c3c2=O)CCC(C)C4)cc1` (configuration not stated), the “activity change, negative = inhibition” value is inactive: 10.1%.

As to `CCOc1ccccc1CNC(=O)CCn1ccc2cc(S(=O)(=O)N3CCC(C)CC3)ccc21`, the “activity change, negative = inhibition” value is inactive: -12.4%.

Turning to `CCCS(=O)(=O)c1c(Nc2ccccc2C)sc(C(=O)c2ccccc2)c1N`, the “activity change, negative = inhibition” value is inactive: 1.46%.

Turning to `Cc1ccc(NS(=O)(=O)c2cc(Br)cc3c2N(C(=O)C2CC2)CC3)cc1C`, the result was inactive.

For the compound `COc1ccc(NC(=O)Cn2c(=O)oc3cc(S(=O)(=O)N4CCC(C)CC4)ccc32)c(OC)c1`, the “activity change, negative = inhibition” value is inactive: -2.78%.

In the case of `CCc1ccccc1N(C)C(=O)Cn1cnc2sc(C)c(S(=O)(=O)N3CCN(c4ncccn4)CC3)c2c1=O`, the compound was called inactive.

On to `CCc1ccc2c(c1)NC(c1cccs1)=NC(c1ccc(F)cc1)=N2`, for which the “activity change, negative = inhibition” value was inactive: -1.28%.

With `Cc1ccc(Cl)cc1NC(=O)C1CCC(CNS(=O)(=O)c2cccc3nsnc23)CC1` (configuration not stated), the “activity change, negative = inhibition” value was inactive: -2.08%.

Turning to `CC(=O)N(Cc1cccnc1)c1nc2c(C)c(C)ccc2s1`, the “activity change, negative = inhibition” value is inactive: 9.64%.

Take `CCOc1ccc(CCNC(=O)c2cc3c(=O)[nH]c4ccc(C)cc4c3s2)cc1OCC`: the “activity change, negative = inhibition” value is inactive: -4.08%.

Regarding `O=C(NC1CCCc2ccccc21)c1ccc2c(c1)sc1nc(-c3ccc(F)cc3)cn12` (configuration not stated), the “activity change, negative = inhibition” value is inactive: -10.2%.

Turning to `O=C(CCCN1C(=O)C(c2ccccc2)Oc2cccnc21)Nc1ccc(Br)cc1F` (configuration not stated), the “activity change, negative = inhibition” value was inactive: 100%.

As for `COc1ccc2c(CNCCc3cccs3)c(C(=O)O)n(Cc3ccccc3)c2c1`, the outcome was inactive.

`CCOC(=O)c1c(NC(C)=O)c2c3c(sc2n1Cc1nc(-c2cccc(Cl)c2)oc1C)CCCC3`: the “activity change, negative = inhibition” value was inactive: 1.51%.

Regarding `Cc1c(Cl)cccc1NC(=O)Cn1c(CCC(=O)O)ccc1-c1cccs1`, the “activity change, negative = inhibition” value was inactive: -8.04%.

As to `COc1ccccc1OCC(=O)NCC(c1ccc(Cl)cc1)N1CCCCC1` (configuration not stated), the “activity change, negative = inhibition” value is inactive: 8.38%.

Take `CCN(C(=O)C1CCN(S(=O)(=O)c2ccc3c(c2)CCCN3C(C)=O)CC1)c1cccc(C)c1`: the “activity change, negative = inhibition” value is inactive: -23.5%.

Consider `COc1cccc(CNC(=O)C(=O)Nc2c3c(nn2-c2ccccc2)CSC3)c1`, for which the “activity change, negative = inhibition” value is inactive: -4.49%.

In the case of `CC(C)c1nn(-c2c(Cl)cccc2Cl)c2nc(Cc3ccc(OCCO)cc3)[nH]c(=O)c12`, the “activity change, negative = inhibition” value was inactive: 19.7%.

In the case of `Cc1ccc2oc3c(c(=O)c2c1)C(c1ccc(F)cc1)N(Cc1ccc2c(c1)OCO2)C3=O` (configuration not stated), the “activity change, negative = inhibition” value was inactive: 3.86%.

With `COc1ccccc1CCNC(=O)C(=O)NCC(c1ccc2c(c1)OCO2)N1CCOCC1` (configuration not stated), the result was inactive.

As for `CCOc1ccc(-c2cccc(NS(=O)(=O)c3c(C)cc(C)cc3C)c2)nn1`, the “activity change, negative = inhibition” value is inactive: -19.1%.

For `CC(=O)c1cccc(NC(=O)c2sc(-n3nc(C)c(Cc4ccc5c(c4)OCO5)c3C)nc2C)c1`, the “activity change, negative = inhibition” value is inactive: -11.4%.

As for `COC(=O)c1ccccc1NC(=O)CSc1nc2ccsc2c(=O)n1CCC(C)C`, the compound was called inactive.

Take `CCOc1cc(C(=O)NCCc2csc3nc(-c4ccc(C)cc4)nn23)cc(OCC)c1OCC`: the “activity change, negative = inhibition” value is inactive: 3.32%.

As to `CC(C)(C)OC(=O)N1CCC(c2c(C(=O)N3CCCCC3)cnn2-c2ccc(Cl)cc2)CC1`, the compound was called inactive.

Take `CCN(CC)C(=O)CSc1nc(-c2ccccc2F)nc2c1Cc1c(CO)cnc(C)c1O2`: the “activity change, negative = inhibition” value was inactive: -3.12%.

As for `Cc1c(-c2ccc(Br)cc2)c(=O)oc2ccc(OC(=O)N3CCOCC3)cc12`, the “activity change, negative = inhibition” value was inactive: -3.02%.
